According to PubChem BioAssay AID1794842 (National Center for Advancing Translational Sciences (NCATS), 2023):
Fewer than 10 of roughly 2,800 compounds were called active. Calls come from the whole dose curve; as a rule, active = well fitted curve in the direction sought with a large enough effect; inconclusive = small, poorly fitted or top-dose-only effect, or another doubt; inactive = no such curve, though single readings can be large or run the other way. The list shows a part of the results.

molecular target: Metallo-beta-lactamase type 2 (Klebsiella pneumoniae) (UniProt C7C422); assay: qHTS to identify inhibitors of the New Delhi Metallo-beta-lactamase (NDM): Meropenem screen against the machine-based learning selections.; note: % of control where 0% means no effect; conditions: Purified NDM-1, meropenem hydrolysis, absorbance 300 nm; at 38.4 µM (top of the series) unless noted
Outline: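 Hydrolysis by 2 nM NDM-1 was followed by absorbance after >30 min compound preincubation in HEPES pH 7.0 buffer with 1 uM Zn2SO4. For nitrocefin (16.7 uM, 15 min, 485 nm) and meropenem (50 uM, 30 min, 300 nm), each substrate ran on separate plates.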

Sequence of UniProt C7C422 (C7C422 whole entry, looked up): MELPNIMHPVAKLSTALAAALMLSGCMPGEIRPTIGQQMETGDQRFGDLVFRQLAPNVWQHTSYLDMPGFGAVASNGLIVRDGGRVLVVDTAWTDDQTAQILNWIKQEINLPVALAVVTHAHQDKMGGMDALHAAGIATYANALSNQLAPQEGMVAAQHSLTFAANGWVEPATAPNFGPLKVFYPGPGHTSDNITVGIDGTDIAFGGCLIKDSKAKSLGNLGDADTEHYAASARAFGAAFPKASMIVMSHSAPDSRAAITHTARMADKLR

Activity change, negative = inhibition, inactive:
Cc1ccn2c(C(=O)N[C@H](Cc3ccccn3)C3CC(O)C3)nnc2n1 (some centres not stated) 16.3%
CO[C@@H]1CO[C@H]2[C@@H]1OC[C@@H]2NC(=O)Nc1cccc(C(F)(F)F)c1 3.28% [at 57.5 µM]
Cc1ccc(C(=O)N2CC3CC(C2)[C@H]2CCCC(=O)N2C3)s1 (some centres not stated) 4.05%
CC(=O)N1CCCN(C(=O)[C@@H]2Cc3cn(C)c4cccc(c34)[C@H](CC(C)C)N2)CC1 5.93% [at 57.5 µM]
O=C1Cc2c(-c3cccc(CO)c3)n[nH]c2CN1c1ccccc1 5.96% [at 57.5 µM]
Nc1nc(CCC(=O)N2CC[C@@H](NC(=O)c3cccnc3)[C@H](O)C2)cs1 -2.13%
COCCN1C(=O)[C@@H]2C[C@@H](CN2Cc2ccc(OC)nc2)Oc2ccccc21 -1.04% [at 57.5 µM]
COc1cccc2c1OCC(C(=O)N1CC(Oc3ccccc3C)C1)C2 (configuration not stated) 0.534%
COCCn1c(CO)nnc1C1CC(NC(=O)c2ccc(F)cc2F)C1 (configuration not stated) 1.77%
COc1ccc(CC(=O)N2CCC(N3CC4CC(C3)[C@H]3CCCC(=O)N3C4)CC2)cc1 (some centres not stated) 0.629%
CC[C@@]1(C(=O)O)C[C@H](C(=O)NC(CO)CO)[C@H](c2ccc(OC)cc2)N1C 24%
O=C(c1ccc2[nH]ccc2c1)N1CCC2(CC1)N=C(c1ccc(Br)cc1)NO2 -0.0584%
CNc1ccc(-c2noc([C@@H]3CCCN3Cc3cccc(OC)c3)n2)cn1 11.6% [at 57.5 µM]
COC[C@H]1CCCN1Cc1nc(C2(O)CCN(Cc3ccccc3O)CC2)cs1 38.3% [at 57.5 µM]
CO[C@H]1[C@H](NC(=O)COc2ccccc2)c2ccccc2C12CCNCC2 1.6%
Cc1ccc(-c2noc([C@@H]3Cc4nc[nH]c4CN3Cc3ccccc3)n2)cc1 51.9% [at 57.5 µM]
O=C(O)Cn1ccc2cc(OCc3cccc(-c4ccc(F)cc4F)c3)cnc21 13.2% [at 57.5 µM]
Cc1noc(C)c1C(=O)N[C@H]1[C@H](O)[C@H](O)C[C@@H]1c1cccnc1 0.0391% [at 57.5 µM]
CC(=O)N1C[C@@H]2CCCN3CCC[C@@H]([C@H]23)[C@H]1CCCC(=O)N(C)Cc1ccc(N2CCOCC2)cc1 0.228%
COc1ccc([C@H]2C[C@@H](O)[C@@H](O)[C@@H]2NC(=O)C2CCC2)cc1 -1.07% [at 57.5 µM]
Cc1ccc(CN2C(=O)[C@@H]3C[C@@H](O)CN3C3(CN(C4Cc5ccccc5C4)C3)C2=O)o1 4.1% [at 57.5 µM]
O=c1c2nc(-c3ccc(O)c(F)c3)ccc2ncn1-c1ccc(F)cc1F -2.92% [at 57.5 µM]
OC[C@H]1C[C@@H](NCc2cccc3c2OCO3)[C@H](O)[C@@H]1O 7.96% [at 76.7 µM]
Cn1ccc2c(C(=O)NCCc3cnc[nH]3)nc(-c3ccc([S+](C)(=O)[O-])cc3)cc21 25.8% [at 57.5 µM]
COc1cccc(CN2CCOC[C@H](Oc3cccnc3)C2)c1 1.48% [at 57.5 µM]
OC[C@@H]1CN(c2ccc(-c3nc(-c4cccc(C(F)(F)F)c4)no3)cn2)C[C@H]1CO 0.088%
CN1C[C@H](NCc2cccc(Cl)c2)CCC[C@@H](C(=O)N(C)Cc2cccnc2)CC1=O 1.33%
O=C(c1csc(Cc2ccccc2)n1)N1CC[C@H](CO)[C@@H](O)C1 0.0675%
COc1ccc(-c2cccc(CCOc3cnc4c(ccn4CC(=O)O)c3)c2)c(C)c1 17.7% [at 57.5 µM]
Cc1ccc2c(c1)nc1n2[C@@H](CNC(=O)c2cccnc2)COC1 -0.8% [at 57.5 µM]
COC(=O)[C@@H]1Cc2c([nH]c3ccccc23)[C@H]2C[C@@H](NCCN(C)C)C[C@@H](c3cccc(Cl)c3)N21 -2.26%
Cc1ccc(CN2CC[C@@H]3[C@H]2C(=O)NC[C@H](CCC(=O)N2CC[C@@H](O)C2)N3C)cc1 4.68% [at 57.5 µM]
CC(=O)Nc1ccc(CN[C@@H]2CO[C@H](CNS(C)(=O)=O)[C@H]2O)cc1 -1.28% [at 57.5 µM]
C[C@@]1(O)CCN(C(=O)CN)C[C@@H]1Cc1ccccc1 7.56%
COCCCNC(=O)C1CC(=O)N(c2n[nH]c3cccc(F)c23)C1 (configuration not stated) 5.7%
Oc1cccc(CN2CCCC23CCN(c2ccc(C(F)(F)F)cn2)CC3)c1 -0.547%
O=C(N[C@H]1CCN2C(=O)c3ccccc3NC(=O)[C@@H]2C1)C1CCCC1 0.219% [at 57.5 µM]
COc1ccc(CC(=O)N2CC[C@@H](CC(=O)O)[C@@H](CCN(CCN3CCOCC3)c3ccccc3)C2)cc1 8.16%
Clc1cc(NC2CCOCC2)n2nccc2n1 4.93% [at 57.5 µM]
O=C(NCCc1ccc(Cl)cc1)c1nc(-c2ccc(F)cc2)c2ccccn12 2.16%
C[C@H](O)c1onc(-c2ccc(Cl)cc2)c1C(=O)NC1CCC1 -0.707% [at 57.5 µM]
Cc1noc([C@@H](C)NS(=O)(=O)c2ccc(Cl)cc2)c1C(=O)O 5.22% [at 57.5 µM]
O=C(NCc1cccnc1)c1nc(-c2ccccc2)cc2[nH]ccc12 1.32% [at 57.5 µM]
Cn1cc(CNCC2(COc3cccnc3)C[C@@H](O)[C@@H](O)C2)c2ccccc21 (some centres not stated) 51.9%
COc1ccccc1-c1ccc2ncc(Nc3ccc(CCO)cc3)n2n1 14.9% [at 57.5 µM]
O=C(N[C@@H]1C[C@H](Cn2cc(C3CC3)nn2)[C@@H](O)[C@H]1O)c1cncnc1 47.4% [at 57.5 µM]
Cc1noc(C)c1[S+](=O)([O-])N1CCC2(CC1)CC(=O)c1ccccc1O2 2.67%
